From the supplement of paper PMC3334620
The full ranking holds about 33,000 sequences; the median of “E-score (-0.5 to 0.5)” is about -0.013, and the highest 2% start at about 0.3. The list shows a part of the results.

Each sequence was assayed against T1, Msn1 (UniProt P22148) (assay: PBM E-score (8-mer binding enrichment) (E-score (-0.5 to 0.5)); higher = stronger / more preferred TF binding; most listed sequences are background and not binding sites). Conditions: protein concentration: 200 nM; construct: GST-full length.
T1 sequence: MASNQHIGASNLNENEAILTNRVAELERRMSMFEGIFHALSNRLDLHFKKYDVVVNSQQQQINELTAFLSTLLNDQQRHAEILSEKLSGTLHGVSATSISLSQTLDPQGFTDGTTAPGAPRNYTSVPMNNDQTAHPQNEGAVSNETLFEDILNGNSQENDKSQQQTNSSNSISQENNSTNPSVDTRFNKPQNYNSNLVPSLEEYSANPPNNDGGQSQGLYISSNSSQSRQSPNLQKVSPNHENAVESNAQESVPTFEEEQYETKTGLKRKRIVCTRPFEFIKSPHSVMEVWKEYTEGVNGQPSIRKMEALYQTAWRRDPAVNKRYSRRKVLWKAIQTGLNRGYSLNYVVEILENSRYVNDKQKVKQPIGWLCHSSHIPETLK
Method in brief: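 For each ungapped eight-base word taken together with its reverse complement, the Universal PBM Analysis Suite assigned an E-score. Binding data came from GST-tagged yeast transcription factors, applied at about 100-200 nM, on universal all-10-mer Agilent arrays made double-stranded by primer extension. Fluorescent anti-GST marked bound protein, and scans were normalised with masliner.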

Sequence | PBM E-score
CCAATCGG | 0.00055
TACTAGGA | 0.198
CTTTCGTC | 0.053
AAATCTTA | 0.0811
ACTATTCG | 0.0722
CTGACATA | 0.269
CGGCACTA | -0.024
CCGCATAA | 0.0515
CCAAGAAG | -0.0807
ACGTAGAC | 0.022
GCCGACGA | 0.022
CGATTCGC | -0.00543
AGATGCGC | 0.058
ACAGTAGC | 0.0239
GATTGCAA | 0.0184
CGAACTAC | 0.0623
ACTATAAC | 0.0074
AGAGGTCC | -0.00313
CTGAGAGC | -0.0928
GGAACACA | -0.0311
ACCCCCGG | -0.318
AAGAGCGC | 0.172
CGTTAAAA | -0.0648
CGGGTAAG | -0.135
ACTATCCC | -0.276

Sequence | PBM E-score
CATGGAGC | -0.204
GCCGTATA | 0.215
GCACCTCC | -0.278
CTTGGAGC | -0.118
CGGCCGTC | -0.0413
CATCCGAA | 0.176
CACTGCCC | -0.193
AGGCGGCG | -0.174
AAAGCGGA | 0.0463
TCACCAGA | -0.106
GGGTAGCA | -0.23
CCCCGCTA | -0.113
GGTCGTTA | -0.021
GCCCAATA | -0.022
ATTGTCAC | 0.297
AGAGACCG | -0.0755
CCTAACCA | -0.023
AGCGACGA | 0.0578
TACCATAA | 0.129
GGGACGAC | 0.115
TACAATAA | 0.214
ATGTTGCA | -0.0862
AAAGGTCA | 0.0381
GTGCCACA | -0.149
GAGTAGCC | -0.177

Sequence | PBM E-score
TCCTTTAA | -0.0768
CCCGCGTC | -0.032
CGAGTGAC | 0.0781
AATGTGCC | -0.101
GGGAGACA | 0.249
CCGCGAGC | -0.0826
GCGTTACC | -0.246
GTGTCGCA | 0.0382
GCGACACA | 0.0733
ATCGTAGG | 0.0259
CACCAGTC | -0.274
ACTGTGGG | -0.102
ATATAATG | 0.107
CGTAGATA | -0.0907
CCGGGCAA | 0.17
AGATTGCA | -0.0645
AAGGGGGC | -0.354
AGTGAAGC | -0.0638
GGTAAACA | 0.123
AGCTGAAC | -0.0193
AAATCTGG | 0.182
AGTTCCCC | -0.186
TACTCGAA | -0.00961
AAAGCATC | -0.0199
AAGTAAGG | 0.0175

Sequence | PBM E-score
ATGGGGAA | 0.0424
GTGATCAC | -0.107
AATCGACC | 0.0452
AATGGGTA | 0.0862
GCCCCTCC | -0.362
AGGACTTA | 0.36
CCTGCATA | -0.118
CCCAGTAC | -0.157
AACGGTAT | 0.0113
CGCGGATC | -0.216
CGCACAGC | -0.0276
CGTCATAC | 0.19
GAGAGAGA | -0.104
GCCTTTAA | 0.0396
AATTCGGC | -0.133
CTGCGCGA | -0.108
ATATGTGG | 0.0596
AGACAACT | 0.147
GCTTCGAA | 0.00535
CTTCAGGC | -0.0893
GTGTAAGA | 0.0844
GGAACGAA | 0.0279
ACCCCTTA | -0.166
CTACCGTC | -0.0251
CTAGAGAG | 0.0247

Sequence | PBM E-score
GAGGTGTA | -0.208
CAAGGGTG | -0.138
ATCATTCA | 0.176
CGATTAGC | -0.0473
AACGGATC | 0.0584
CGCTAGAG | -0.177
GCGGATTA | -0.063
TAAGGTAA | 0.113
GCTGCAGC | -0.113
CGGGTTAC | 0.0927
ACTTTGCT | -0.0444
TAAGTATA | 0.25
GCGAGTAA | 0.172
TCCCCAGA | -0.107
ATAGACCA | -0.0849
ATCACCGA | 0.148
CATTGCGC | 0.0278
AATTCCCT | 0.0545
GGCACCAC | -0.138
AACTGTGC | -0.0194
CAAGCTCC | -0.195
TCAGAACA | -0.00857
AAGGAAGG | -0.154
GCTGTCAA | -0.0112
CACTAGTC | -0.0105

Sequence | PBM E-score
GTGCACTA | 0.0251
ACCAGTGC | -0.223
CGGTAAGA | 0.00325
AAGTGAGT | -0.0599
CCCACGGG | -0.185
AGTAATAC | -0.0836
AGTGAATA | 0.00262
GGCGCAAC | -0.158
AAAGTAAC | 0.097
ACCTCTAG | 0.0454
ACGCCCAA | -0.0889
CGGCTGGA | -0.126
ATATTGCC | 0.0437
AACACACC | 0.0499
AGTACATC | 0.131
ACAAAGTA | 0.172
AGGCGCCC | -0.2
CGACAGTA | -0.127
AGTAAGAT | 0.0927
AACTCTCA | 0.0216
CTCCTGGC | -0.137
GACTGGAA | -0.107
CTTACGGA | -0.0601
CGGAGAAG | -0.174
CCCACAAA | 0.188

Sequence | PBM E-score
AAATAGTG | 0.145
CATCAAAC | -0.0523
GGGTTGGA | -0.123
CAGTGGGA | -0.0388
AATCGGAT | 0.226
CCAGTCGA | -0.14
AGTCTTCG | 0.0625
GGGAACGA | -0.121
ACAGACCT | -0.0275
GATCTACA | -0.0461
AAAATTCA | 0.308
CAAAGGTC | -0.128
ACGGTTGA | -0.0648
AGTACCCG | 0.0325
TCTACCAA | 0.0596
AGGGCAGA | -0.165
ACCCTGGA | -0.225
ATCGAGCG | -0.0861
CCCTGTCA | -0.0892
AATGCAAT | -0.162
GGTTGTTA | 0.222
CGAACCAG | 0.0199
